Data reported in publication PMC4336329 (PLoS ONE, 2015).
About 14,000 (4.5%) of roughly 310,000 compounds showed an effect of 50% or more. Effects have a minus sign here. Some of the results follow.

biological target: human ether-à-go-go-related gene (hERG) potassium channel (human, UniProt Q12809); assay: primary screen, population patch clamp on CHO cells stably expressing hERG
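Further: peak tail current of the secondary pulse compared with the same well before compound.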

Chain of human ether-à-go-go-related gene (hERG) potassium channel (Q12809 whole entry, looked up): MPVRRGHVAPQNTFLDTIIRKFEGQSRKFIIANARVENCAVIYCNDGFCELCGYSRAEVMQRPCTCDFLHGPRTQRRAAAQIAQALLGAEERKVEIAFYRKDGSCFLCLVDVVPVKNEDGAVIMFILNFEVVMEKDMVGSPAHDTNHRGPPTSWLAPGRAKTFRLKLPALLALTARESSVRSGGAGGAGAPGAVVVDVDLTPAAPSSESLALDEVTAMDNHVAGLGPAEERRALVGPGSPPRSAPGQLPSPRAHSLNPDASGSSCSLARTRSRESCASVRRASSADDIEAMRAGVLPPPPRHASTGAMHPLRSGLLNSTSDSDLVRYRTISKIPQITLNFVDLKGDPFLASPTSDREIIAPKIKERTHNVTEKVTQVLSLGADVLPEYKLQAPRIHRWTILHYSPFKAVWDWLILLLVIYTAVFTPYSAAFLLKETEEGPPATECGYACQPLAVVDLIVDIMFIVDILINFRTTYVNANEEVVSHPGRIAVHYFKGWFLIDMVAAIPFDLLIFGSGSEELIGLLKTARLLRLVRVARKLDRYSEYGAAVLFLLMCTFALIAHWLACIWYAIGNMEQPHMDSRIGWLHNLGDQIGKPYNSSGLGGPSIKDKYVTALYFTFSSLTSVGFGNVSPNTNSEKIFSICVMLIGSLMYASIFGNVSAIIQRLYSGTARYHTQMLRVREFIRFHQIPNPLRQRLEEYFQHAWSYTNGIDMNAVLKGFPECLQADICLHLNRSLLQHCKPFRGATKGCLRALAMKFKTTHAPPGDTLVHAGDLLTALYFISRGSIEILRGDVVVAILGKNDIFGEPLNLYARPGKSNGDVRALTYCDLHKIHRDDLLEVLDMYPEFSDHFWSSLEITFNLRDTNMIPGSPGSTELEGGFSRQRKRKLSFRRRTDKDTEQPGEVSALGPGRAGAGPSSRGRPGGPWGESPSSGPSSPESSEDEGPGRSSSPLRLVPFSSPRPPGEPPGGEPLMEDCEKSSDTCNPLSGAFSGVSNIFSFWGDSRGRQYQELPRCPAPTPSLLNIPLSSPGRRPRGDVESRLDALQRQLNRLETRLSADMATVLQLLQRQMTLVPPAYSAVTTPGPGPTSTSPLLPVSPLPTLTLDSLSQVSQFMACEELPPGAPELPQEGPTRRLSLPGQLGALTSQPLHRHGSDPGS

| SMILES | hERG current change (%, negative = inhibition) at 10uM |
| --- | --- |
| O=C(N1CCN(c2ccccc2F)CC1)C1(c2cccs2)CCOCC1 | 3.18% |
| CCC(OC(=O)c1cc2sccc2n1C)C(=O)NCc1ccco1 (stereo not shown) | -17.5% |
| COc1ccc(CCNC(=O)CCC(=O)n2ncc3cc(C)ccc32)cc1OC | -1.2% |
| CCOC(=O)c1oc2cc(O)ccc2c(=O)c1-c1ccccc1OC | 2.03% |
| COc1ccc(C2C(C(=O)c3sc(C)nc3C)=C(O)C(=O)N2CCN(C)C)cc1OC (stereo not shown) | 11.8% |
| COC(=O)[C@@]12CCCCN1[C@H](c1ccc(-c3ccc(F)cc3)cc1)[C@@H]1C(=O)N(C)C(=O)[C@@H]12.O=C(O)C(F)(F)F | -27.1% |
| Cn1c(CN2CCCC2)nc2cc(NC(=O)Nc3ccccc3)ccc21 | -8.85% |
| C/C(=N\NC(=O)c1nonc1N)c1cccs1 | 4.26% |
| COc1ccc(NC(=O)c2ccc(COc3ccccc3Br)o2)cc1OC | 0.369% |
| Cc1ccc([N+](=O)[O-])cc1S(=O)(=O)Nc1ccc(-c2ccc(N3CCCC3)nn2)cc1 | -10.4% |
| CCOc1ccc2nc(NC(=O)c3ccc(OC)c(S(=O)(=O)N4CCOCC4)c3)sc2c1 | -23.3% |
| COc1ccc(C(=O)NC(CC(C)C)C(=O)O)cc1 (stereo not shown) | 6.81% |
| O=C(O)CCC(=O)N1CCN(c2ncccc2C(F)(F)F)CC1 | 9.74% |
| COc1ccc(C(=O)NC(=S)Nc2ccc3[nH]c(=O)[nH]c3c2)c(OC)c1 | 5.35% |
| O=[N+]([O-])c1ccccc1N/N=C\c1ccccc1Cl | 21.6% |
| O=C(NC(O)C(=O)c1ccccc1)c1ccc(F)cc1 (stereo not shown) | 16.6% |
| CCCNC(=O)c1ccccc1NC(=O)C1=CSCCO1 | 3.83% |
| CCc1nc2nc(C)c(NS(=O)(=O)c3ccc(Cl)s3)c(=O)n2[nH]1 | 20.7% |
| COc1cc(OC)c2c(C)c(Cl)c(=O)oc2c1 | 14.3% |
| CC(C)(C)c1cc(CCC(=O)NNC(=O)c2ccco2)cc(C(C)(C)C)c1O | -19.1% |
| CC(=O)N1N=C2C3CCN(CC3)C2C1c1ccc(Br)cc1 (stereo not shown) | 4.62% |
| O=C(/C(=C/O)N=Nc1ccc(Cl)cc1)c1ccncc1 | 4.31% |

| SMILES | hERG current change (%, negative = inhibition) at 10uM |
| --- | --- |
| CC(=O)N1N=C(c2ccc(C)cc2)CC1c1ccc2c(c1)OCO2 (stereo not shown) | -30.1% |
| O=C(COc1cccc(Cl)c1)Nc1ccccc1N1CCCCC1 | 7.23% |
| O=C1C(=O)N(Cc2cccnc2)C(c2cccc([N+](=O)[O-])c2)/C1=C(\O)c1ccc2c(c1)OCCO2 (stereo not shown) | 3.48% |
| Cn1nc(-c2ccccc2)c(CSc2ccccc2)c1Cl | 5.8% |
| Cc1cccc(C(=O)NC2CCCc3ccccc32)c1 (stereo not shown) | -12.5% |
| CCN1CCN(C(=O)c2ccc(CNS(=O)(=O)c3cccc(OC)c3)cc2)CC1 | 40.7% |
| O=C(Cc1cccc2ccccc12)Nc1nc2ccccc2[nH]1 | -2.01% |
| Cc1ccc(S(=O)(=O)N/N=C/c2cccc3nccnc23)cc1 | 8.95% |
| O=C(CSc1nc(-c2ccccc2)cc(=O)[nH]1)Nc1ccccn1 | 11.2% |
| COC(=O)COc1ccc2c(c1C)O/C(=C\c1ccco1)C2=O | -0.317% |
| CCOCCc1nnc(NC(=O)CCC2CCCCC2)s1 | 8.26% |
| O=C(c1cccc(F)c1)N1CCC(c2nc3ccccc3s2)CC1 | -49.9% |
| CCOC(=O)CNC(=O)N1CCc2ccc(NC(=O)c3ccccc3OC)cc2C1 | 0.878% |
| CC(=O)N1CCC(N(CCCOC(C)C)S(=O)(=O)c2ccc([N+](=O)[O-])cc2)CC1 | -35.3% |
| O=C(/C=C/c1ccc(O)c([N+](=O)[O-])c1)c1ccc2ccccc2c1 | 18.4% |
| COc1ccc(N(Cc2ccccc2)S(=O)(=O)c2cccc(C(=O)NC3=NCCS3)c2)cc1 | 6.28% |
| Cc1ccc(SC(C)C(=O)NCC(C)C)cc1 (stereo not shown) | 7.23% |
| Cn1nc(-c2ccccc2)c(C(=O)NC(C(=O)O)c2ccccc2)c1Cl (stereo not shown) | 14.2% |
| COC(=O)c1cn(NC(=O)c2cc(OC)c(OC)c(OC)c2)c(=O)c2ccccc12 | 22.9% |
| Cc1cccc(OCc2nnc(SCC(=O)Nc3ccc(C)c(C)c3)o2)c1 | 5% |
| Cc1cccc(-c2nc3c(c(SCC(=O)N4CCOCC4)n2)Cc2c(CO)cnc(C)c2O3)c1 | 5.78% |
